Several values for one entry are separate records, joined by “and”; a condition that tells them apart may be missing. Equal entries are not always repeated. Screen size: about 230,000 compounds; about 3,600 (1.6%) were called active. This list was built around the results that the source calls inconclusive (neither active nor inactive); the mix of calls is not that of the screen. Calls come from the whole dose curve; as a rule, active = well fitted inhibition curve with a large enough effect (not every such curve was filed as active); inconclusive = small, poorly fitted or top-dose-only effect, or another doubt; inactive = no such curve, though single readings can be large or run the other way. Potencies beside an inconclusive call are fits to weak or partial responses and may not hold up.
Molecular target: Lysine-specific demethylase 4E (Homo sapiens) (UniProt B2RXH2)
Test: qHTS Assay for Inhibitors of Human Jumonji Domain Containing 2E (JMJD2E)
Details: JMJD2E catalytic domain, FDH-coupled NADH fluorescence (FDH is formaldehyde dehydrogenase); series mostly up to 57.1 µM; activity change, negative = inhibition: at the top concentration
Note: nearly all actives have a fitted effect of over 50% in size.
Potency is the fitted concentration of half-maximal effect; tags give direction and shape of the fitted curve.
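Throughout, for activity change, negative = inhibition: 0% = wells with enzyme and -100% = buffer wells without enzyme.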

Sequence of UniProt B2RXH2 (B2RXH2 whole entry, looked up, the tested form may be a part): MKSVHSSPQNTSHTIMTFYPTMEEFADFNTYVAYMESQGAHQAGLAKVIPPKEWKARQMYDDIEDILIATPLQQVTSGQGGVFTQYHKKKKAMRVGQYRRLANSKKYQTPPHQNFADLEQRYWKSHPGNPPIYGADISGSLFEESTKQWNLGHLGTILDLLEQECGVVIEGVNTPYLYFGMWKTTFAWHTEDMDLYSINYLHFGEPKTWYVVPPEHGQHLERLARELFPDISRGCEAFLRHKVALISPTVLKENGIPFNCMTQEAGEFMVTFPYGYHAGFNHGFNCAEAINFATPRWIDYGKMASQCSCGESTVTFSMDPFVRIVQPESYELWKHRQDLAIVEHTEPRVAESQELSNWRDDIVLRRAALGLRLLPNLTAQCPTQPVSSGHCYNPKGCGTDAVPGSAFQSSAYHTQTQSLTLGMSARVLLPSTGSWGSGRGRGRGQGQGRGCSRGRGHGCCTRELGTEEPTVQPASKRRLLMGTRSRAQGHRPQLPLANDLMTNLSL

Compound	Potency	activity change, negative = inhibition
O=C(Nc1cc(-c2nc3ccccc3s2)ccc1Cl)c1ccc2c(c1)OCO2	inconclusive: 7.94 µM [inhibitor, partial curve]	–
Cc1ccc(OCCCN2C(=O)C(=O)c3cccc(C)c32)cc1	–	inactive: 0.752%
CCOC(=O)c1cnc(SC2CC(=O)N(c3ccccc3)C2=O)nc1N (stereo unspecified)	–	inactive: 0.217%
CCCCNS(=O)(=O)c1ccc2nc(SCC(=O)Nc3sccc3C#N)[nH]c2c1	–	inactive: -7.75%
Cc1ccc(OCCN2CCNCC2)c([N+](=O)[O-])c1	inconclusive: 25.1 µM [inhibitor, single point]	–
Cc1cccc(OCC(=O)NNc2c3ccccc3nc3ccccc23)c1	–	inactive: 2.73%
Oc1c(CN2CCN(c3ccccc3)CC2)cc(Br)c2cccnc12	inconclusive: 25.1 µM [inhibitor, single point]	–
CCCCOCC(O)CN1CCN(C(C)=O)CC1 (stereo unspecified)	inconclusive: 31.6 µM [inhibitor, single point]	–
COc1ccc(/C=N/NC(=O)c2sc3nc(C)cc(C)c3c2N)cc1	inconclusive: 7.94 µM [inhibitor, partial curve]	–
CCC(c1nnnn1CCc1ccccc1)N1CCN(C(=O)c2ccco2)CC1 (stereo unspecified)	–	inactive: -1.65%
Cc1noc(C)c1COc1ccc(C(=O)OCC(=O)NC2CCCCC2C)cc1 (stereo unspecified)	inconclusive: 35.5 µM [inhibitor, single point]	–
CC(C)CCN(CCC(C)C)CC(O)Cn1c2ccccc2c(=O)c2ccccc21 (stereo unspecified)	inconclusive: 35.5 µM [inhibitor, partial curve]	–
CC(C)(C)c1ccc(OCC(=O)N/N=C/c2ccsc2)cc1	–	inactive: -0.0791%
O=C(Nc1nc2cc3c(cc2s1)OCO3)c1ccc(N2C(=O)CCC2=O)cc1	inconclusive: 35.5 µM [inhibitor, partial curve]	–
CC(C)(C)c1cc[n+](C2=C([O-])c3ccccc3C(=O)/C2=N\S(=O)(=O)c2ccccc2)cc1	inconclusive: 12.6 µM [inhibitor, single point]	–
Cc1nc(NC2CCCCC2)c2nc(-c3ccccc3)n(CCCN3CCOCC3)c2n1	inconclusive: 28.2 µM [inhibitor, partial curve]	–
N#Cc1ccc(NC(=O)c2nc(-c3ccccc3)n(-c3ccccc3)n2)cc1	inconclusive: 31.6 µM [inhibitor, partial curve]	–
O=C(C1CC1)N1CCN=C1SCc1ccc(F)cc1	–	inactive: -4.4%
CCCCc1cc(=O)oc2c(CN(CC)CC)c(O)c(Cl)cc12	inconclusive: 0.631 µM [inhibitor, partial curve, poor fit]	–
CCC1=C2CC[C@H]3C(=O)N(CC)C(=O)[C@H]3[C@H]2[C@@]2(Cc3ccccc3)C(=NCC3CC3)OC(=O)N2C1=O	–	inactive: 0.751%
Cc1cc2cc(CNC(=O)Nc3cccc(Cl)c3)ccc2n1C	inconclusive: 35.5 µM [inhibitor, single point]	–
CCCn1c(NC(=O)c2ccc(Cl)c(S(=O)(=O)N3CCCC3)c2)nc2ccccc21	inconclusive: 35.5 µM [inhibitor, single point]	–
COC(=O)[C@@]1(Cc2ccccc2)[C@H]2c3cc(C(=O)N(C)C)n(C[C@H](O)CO)c3C[C@H]2CN1C(=O)c1ccccc1	inconclusive: 39.8 µM [inhibitor, single point]	–
Cc1ccc(S(=O)(=O)c2cc3c(=O)n4ccccc4nc3n(Cc3ccco3)c2=N)cc1C	inconclusive: 35.5 µM [inhibitor, partial curve]	–

Compound	Potency	activity change, negative = inhibition
COc1ccc(S(=O)(=O)N2CCN(C(=O)COc3ccc4c(C)cc(=O)oc4c3)CC2)cc1	inconclusive: 25.1 µM [inhibitor, partial curve]	–
Cc1cc(C(=O)N2CCOCC2)ccc1[N+](=O)[O-]	inconclusive: 39.8 µM [inhibitor, single point]	–
COc1cc(C2C(C#N)=C(N)Oc3c2oc(CO)cc3=O)ccc1OC(C)C (stereo unspecified)	inconclusive: 31.6 µM [inhibitor, single point]	–
COc1ccc(NC(=S)N2c3ccccc3CC2C)cc1OC (stereo unspecified)	–	inactive: -14.1%
Cc1ccc(S(=O)(=O)n2c([N+](=O)[O-])cnc2C)c(C)c1C	inconclusive: 39.8 µM [inhibitor, single point]	–
CC[n+]1cccc(-c2nc3ccccc3s2)c1	inconclusive: 28.2 µM [inhibitor, single point]	–
Cn1cc2cc(NC(N)=S)ccc2n1	inconclusive: 39.8 µM [inhibitor, single point]	–
Cc1cc(C)n(-c2ncnc3sc(C)c(C)c23)n1	inconclusive: 28.2 µM [inhibitor, partial curve]	–
COc1ccc(CCNC(=O)CCCn2c(=O)[nH]c3cc(OC)c(OC)cc3c2=O)cc1OC	inconclusive: 31.6 µM [inhibitor, single point]	–
O=C(NC(=S)Nc1ccc(S(=O)(=O)Nc2nccs2)cc1)c1ccccc1F	–	inactive: 11.9%
COc1c(Br)cc(Br)cc1/C=C1/C(=O)N=C(N)N1C	–	inactive: 0.916%
Cc1nn(C)c(Cl)c1CN1CCCC(CO)(Cc2cccc(Cl)c2)C1 (stereo unspecified)	inconclusive: 39.8 µM [inhibitor, single point]	–
CCCCNC(=O)/C(C#N)=C/c1ccc(C(=O)OC)cc1	inconclusive: 35.5 µM [inhibitor, single point]	–
N#Cc1ccccc1NC(=O)Nc1ccccc1	inconclusive: 39.8 µM [inhibitor, single point]	–
CCOC(=O)C1=C(O)C(=O)N(c2ccc(S(N)(=O)=O)cc2)C1c1ccc(Br)cc1 (stereo unspecified)	inconclusive: 35.5 µM [inhibitor, single point]	–
O=C(OCc1nnc(-c2ccccc2)o1)c1cccnc1Cl	–	inactive: -3.5%
CN(C)c1cccc(C(=O)n2cc(C(=O)c3cc(F)ccc3O)cn2)c1	inconclusive: 35.5 µM [inhibitor, partial curve]	–
CN(Cc1cc2ccccc2[nH]c1=O)S(=O)(=O)c1ccccc1	inconclusive: 35.5 µM [inhibitor, single point]	–
O=C(NCCCN1CCOCC1)c1ccccc1	inconclusive: 39.8 µM [inhibitor, single point]	–
COc1ccc(OC)c(C2C(C(=O)c3cc4ccccc4o3)=C(O)C(=O)N2c2cc(C)on2)c1 (stereo unspecified)	inconclusive: 28.2 µM [inhibitor, single point]	–
Cc1csc(=Nc2cccnc2)n1Cc1ccco1	–	inactive: -0.316%
c1ccc(Oc2cccc(OCCn3cncn3)c2)cc1	inconclusive: 35.5 µM [inhibitor, single point]	–
CS(=O)(=O)N1CCN(c2ccc(NC(=O)c3ccc([N+](=O)[O-])o3)cc2)CC1	–	inactive: -4.58%
Fc1ccc(/C=N/c2c(-c3ccc(F)cc3)nc3n2CCS3)cc1	–	inactive: 5.21%

Compound	Potency	activity change, negative = inhibition
O=C(Cn1ncc(Cl)c(Cl)c1=O)NCC1CCCCC1	–	inactive: -2.87%
Cc1ccccc1NC(=O)C1CCN(c2cnccn2)CC1	inconclusive: 35.5 µM [inhibitor, single point]	–
O=c1c(-c2cnn(-c3ccccc3)c2)coc2cc(O)ccc12	inconclusive: 35.5 µM [inhibitor, single point]	–
O=S(=O)(c1ccc(F)cc1)n1ccc(-c2cnc(-c3ccccc3)s2)n1	inconclusive: 28.2 µM [inhibitor, partial curve]	–
CCOC(=O)N1CCc2c(sc3c2C(=O)NC(c2ccccc2)N3)C1 (stereo unspecified)	inconclusive: 28.2 µM [inhibitor, partial curve]	–
COCc1nnc(NC(=O)c2ccc(S(=O)(=O)N(C)c3ccccc3)cc2)o1	inconclusive: 39.8 µM [inhibitor, single point]	–
CC(C)Oc1ccc(C(=O)Nc2ccc(N(C)C)cc2)cc1	inconclusive: 39.8 µM [inhibitor, single point]	–
S=C(NCc1ccco1)N1CCN(C(c2ccccc2)c2ccccc2)CC1	–	inactive: -1.24%
N#C/C(=C/c1ccc(F)cc1)c1nnc(NC(=O)c2ccccc2)s1	inconclusive: 39.8 µM [inhibitor, single point]	–
CCN1CCc2c(sc3c2c(NCc2ccco2)nc2nnnn23)C1	inconclusive: 28.2 µM [inhibitor, partial curve]	–
CC(Cl)C(=O)NC(=O)NC12CC3CC(CC(C3)C1)C2 (stereo unspecified)	–	inactive: 1.91%
CCOc1ccc(-n2c(C)nc3cc(C(=O)NCCN4CCOCC4)ccc32)cc1	–	inactive: -12.6%
Cc1ccc(OCC(=O)N2CCC(N3CCCCCC3)CC2)cc1	–	inactive: -17.9%
CCC(C)NC(=O)COC(=O)c1cccnc1Nc1ccccc1F (stereo unspecified)	inconclusive: 39.8 µM [inhibitor, single point]	–
COc1cc(CN2CCN(S(=O)(=O)c3ccc(NC(C)=O)cc3)CC2)cc(OC)c1O	inconclusive: 39.8 µM [inhibitor, single point]	–
COc1cc2cc(C)nc(Cc3cccc4ccccc34)c2cc1OC	inconclusive: 1 µM [inhibitor, full curve, poor fit]	–
c1ccc2c(c1)ncn2Cc1nnc2sc(-c3ccc4c(c3)OCO4)nn12	inconclusive: 22.4 µM [inhibitor, partial curve]	–
CC(=O)Nc1cccc(Oc2ncnc3scc(-c4ccccc4)c23)c1	–	inactive: 5.9%
Cc1cc2nc(CCl)cc(=O)n2[nH]1	inconclusive: 28.2 µM [inhibitor, partial curve]	–
CN1CCc2c(sc3ncn4nc(-c5ccccc5O)nc4c23)C1	active: 22.4 µM	–
O=C(Nc1ccc2nn(-c3ccccc3)nc2c1)c1ccc2c(c1)OCO2	inconclusive: 25.1 µM [inhibitor, partial curve]	–
CCCCNC(=O)CNC(=S)N(Cc1ccccc1F)C1CCCCC1	–	inactive: -0.436%
CNCC(O)c1ccc(O)c(O)c1 (stereo unspecified)	active: 20 µM and active: 14.1 µM	–
